Experimental data reported in PubChem BioAssay AID488969 (Vanderbilt High Throughput Screening Facility, 2010).
Over roughly 110,000 compounds, “z-score” has its median near -0.1; the highest 2% begin near 2. Some of the results follow. Active and inactive are the calls of the source.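 The calls were made as follows: active = z-score in the third read window above 3 or below -3; inactive = the rest.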

What follows are compounds tested against Metabotropic glutamate receptor 8 (Rattus norvegicus) (UniProt P70579) (assay: rat mGluR8 modulators via GIRK flux, primary screen, cell-based, thallium flux, HTS (AID 488969)). Conditions: HEK293 rat mGluR8, GIRK (G protein-gated inwardly rectifying potassium channel) thallium flux, FluoZin2; at 10 µM; stronger effect = higher value; submaximal glutamate (EC20) added with thallium.
Chain of UniProt P70579 (P70579 whole entry, looked up): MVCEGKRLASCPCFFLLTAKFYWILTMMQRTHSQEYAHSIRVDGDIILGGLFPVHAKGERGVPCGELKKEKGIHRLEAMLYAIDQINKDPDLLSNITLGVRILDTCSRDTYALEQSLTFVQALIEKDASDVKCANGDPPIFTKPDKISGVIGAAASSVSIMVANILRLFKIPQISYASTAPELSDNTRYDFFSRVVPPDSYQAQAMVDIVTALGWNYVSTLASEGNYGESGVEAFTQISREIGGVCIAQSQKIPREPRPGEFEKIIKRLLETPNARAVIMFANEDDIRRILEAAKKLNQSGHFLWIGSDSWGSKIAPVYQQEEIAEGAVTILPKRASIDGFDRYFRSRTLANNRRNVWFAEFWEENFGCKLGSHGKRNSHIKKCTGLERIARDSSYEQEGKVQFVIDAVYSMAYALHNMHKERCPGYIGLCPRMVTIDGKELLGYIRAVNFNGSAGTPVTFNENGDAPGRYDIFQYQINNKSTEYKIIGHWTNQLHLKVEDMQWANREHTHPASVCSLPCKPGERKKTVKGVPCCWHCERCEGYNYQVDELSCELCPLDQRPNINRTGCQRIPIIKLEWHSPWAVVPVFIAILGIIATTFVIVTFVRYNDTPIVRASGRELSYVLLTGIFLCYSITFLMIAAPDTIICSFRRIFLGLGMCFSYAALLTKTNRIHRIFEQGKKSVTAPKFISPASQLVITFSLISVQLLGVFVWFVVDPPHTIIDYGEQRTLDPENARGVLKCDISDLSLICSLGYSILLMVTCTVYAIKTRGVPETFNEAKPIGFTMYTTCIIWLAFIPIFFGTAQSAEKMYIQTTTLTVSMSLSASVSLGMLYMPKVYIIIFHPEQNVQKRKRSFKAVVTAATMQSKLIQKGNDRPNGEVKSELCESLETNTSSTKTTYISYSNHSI
Work on `CCCCc1ccc(NS(=O)(=O)c2cccs2)cc1` yielded a z-score of 0.186.
In the case of `CCOc1cc(C(c2c(C)[nH][nH]c2=O)c2c(C)[nH][nH]c2=O)ccc1OC(=O)c1cccc([N+](=O)[O-])c1`, the z-score is reported as 0.129.
`CC(=O)c1cc(F)c(N2CCN(C(=O)COc3ccccc3F)CC2)cc1C` was tested, and the z-score was 0.44.
In the case of `COc1ccccc1-n1c(C)c2c(OC)cccc(=O)c2c1C`, the z-score is reported as -0.777.
`Cn1cc(CCC(=O)NCc2ccc3c(c2)OCO3)c2ccccc21` was tested, and the z-score was active: 3.75.
For `Cc1ccc(-c2ccc(/C=N/c3ncn[nH]3)o2)cc1Cl`, the z-score was -0.497.
`CCC(=O)OCCNc1cc(Sc2nc3ccccc3s2)c2nonc2c1[N+](=O)[O-]` showed a z-score of -0.434.
`O=C(/C=C/c1ccc2c(c1)OCO2)NCc1ccc(F)cc1` gave a z-score of -0.449.
Compound `COc1ccc(OCC(=O)O/N=C(\N)c2ccc(OC)c(OC)c2)cc1` has a z-score of 0.0106.
With `CC(Oc1ccccc1)C(=O)Nc1ccc(S(=O)(=O)NCC2CCCO2)cc1` (stereo not drawn) the z-score was -0.0181.
Compound `Cc1ccccc1NC(=O)Cc1c(O)c2ccccc2[nH]c1=O` has a z-score of -0.121.
Compound `CCc1ccccc1NC(=S)N(CCN(C)C)C(C)c1ccccn1` (stereo not drawn) has a z-score of 0.158.
In the case of `Cc1ccc(CN(c2ccc(C(=O)N3CCc4ccccc4C3)cc2)S(C)(=O)=O)cc1`, the z-score is reported as -0.35.
Compound `N#Cc1c(NC(=O)CSc2nnc(-c3ccco3)n2-c2ccccc2)sc2c1CCC2` has a z-score of -0.148.
Compound `Clc1ccc(CSc2ncnc3nc[nH]c23)cc1` has a z-score of -0.0267.
Work on `CCC(CC)C(=O)Nc1cccc(C(=O)N2CCCC2)c1` yielded a z-score of -1.16.
Work on `Cc1ccc(NC(=O)N2CCC(O)(c3cccnc3)CC2)cc1` yielded a z-score of -0.16.
For `Cc1cc(=O)oc2cc(OCC3CC(c4ccccc4Cl)=NO3)ccc12` (stereo not drawn), the z-score was -0.31.
`CN1CCN(C(c2ccccc2)c2nnnn2Cc2ccccc2)CC1` (stereo not drawn) gave a z-score of 0.132.
Work on `COC(=O)Cn1c(=NC(=O)CN2C(=O)CCC2=O)sc2cc(S(N)(=O)=O)ccc21` yielded a z-score of -0.289.
`CCOC(=O)C1=C(C)NC(=O)C(C#N)C1c1ccncc1` (stereo not drawn) gave a z-score of -0.0805.
For `COc1cc(C2NC(=O)N(C)C3=C2C(=O)CCC3)cc(OC)c1OC` (stereo not drawn), the z-score was -0.583.
With `CCn1c(CNC(=O)c2ccco2)nnc1SCC(=O)Nc1ccc(Br)cc1F` the z-score was 1.31.
Compound `COc1ccc(C(=O)Cc2nnc(C)s2)c(OC)c1` has a z-score of 0.109.
Compound `O=C(CN1CCN(c2ccccn2)CC1)NC1CCCCC1` has a z-score of 0.13.
Compound `Cn1nc(-c2ccccc2)c(-c2nc(-c3ccccc3Cl)no2)c1Cl` has a z-score of 0.0797.
`COc1ccc(C)cc1NC(=O)Nc1ccc(Br)cn1` gave a z-score of 0.233.
Compound `CCOc1ccc(/C=C2\C(=O)c3ccccc3OC2c2ccccc2)cc1` (stereo not drawn) has a z-score of 0.144.
Work on `C/C(N)=C(/C#N)C(=O)CSc1nnnn1-c1ccccc1` yielded a z-score of -0.0649.
In the case of `Cc1ccc(Cl)cc1N1CCN(CC(=O)Nc2ccc(CN3CCCCC3)cc2)CC1`, the z-score is reported as 0.558.
`CC(C)[C@H](N)c1nnc(SCC(=O)c2ccc(Cl)cc2)o1` showed a z-score of 0.307.
In the case of `CCOC(=O)CN(C(=O)Cn1nnc2ccccc21)C(C(=O)NCCOC)c1ccccc1C` (stereo not drawn), the z-score is reported as -0.3.
With `Cc1ccccc1OCCNc1cc(N2CCN(CCO)CC2)ccc1[N+](=O)[O-]` the z-score was -0.092.
Work on `CC(C)OC(=O)NC(C)(C)COC(=O)Nc1cccc(Cl)c1` yielded a z-score of -0.698.
Work on `Cc1ccc(C2c3sc(=O)[nH]c3SC3C4CC(C5C(=O)N(C(C)C(=O)O)C(=O)C45)C23)cc1` (stereo not drawn) yielded a z-score of -0.0374.
For `CCOc1cc(C(=O)O)cc(Cl)c1OC`, the z-score was -0.0582.
`Cc1ccc2nc3nc(NCC4CCCO4)c(C(=O)NC4CCCC4)cc3c(=O)n2c1` (stereo not drawn) gave a z-score of -0.396.
`Cc1cc(SCCOc2ccc(Br)cc2)nc(N)n1` was tested, and the z-score was 0.361.
With `CCCc1nn(-c2cc(Cl)ccc2OC)c2c1C(=O)CC(C)(C)C2` the z-score was -1.14.
`CCSc1nnc(NC(=O)CSc2nc3c(c(=O)n2C)SC(C)C3)s1` (stereo not drawn) showed a z-score of -2.02.
`C/C(=C\C(=O)c1ccc(Br)cc1)NCc1ccc(C)cc1` gave a z-score of -0.364.
With `Cc1cc(C(=O)COC(=O)c2ccc[nH]c2=O)c(C)n1-c1ccc(Br)cc1` the z-score was -0.0786.
Compound `COc1ccc(O)c(C(=O)c2cc(C#N)c(=O)n(-c3c(C)n(C)n(-c4ccccc4)c3=O)c2)c1` has a z-score of -0.346.
`COC(=O)c1c(NC(=O)c2ccc(S(=O)(=O)N3CCOCC3)cc2)sc2c1CCN(C)C2` was tested, and the z-score was -0.223.
In the case of `COCCNC(=O)CNC(=S)N(Cc1ccccc1)Cc1cccnc1`, the z-score is reported as 0.192.
`O=C(O)c1cc(-c2ccncc2)nc2ccc(F)cc12` gave a z-score of -0.321.
In the case of `CCn1c(-c2nonc2NC(=O)c2ccccc2)nc2ccccc21`, the z-score is reported as -0.103.
`CC(C)CCNC(=O)CN(C(=O)Cn1nnc(-c2ccccc2F)n1)c1cccc2c1CCCC2` gave a z-score of -0.335.
Compound `COc1ccc(-c2csc(-c3cc4ccccc4oc3=N)n2)cc1` has a z-score of -0.00953.
Compound `CCCCn1c(=NC(=O)c2cccnc2)c(C(=O)OCC)cc2c(=O)n3ccccc3nc21` has a z-score of -0.521.
With `Cc1nn(CC(=O)Nc2ccc(Cl)cn2)c(C)c1[N+](=O)[O-]` the z-score was 0.145.
Work on `Cc1ccc(OCC(=O)NNC(=O)c2cc3ccccc3o2)cc1C` yielded a z-score of 1.04.
Compound `Cc1ccc(S(=O)(=O)N2CC(=NO)C2)cc1` has a z-score of 0.818.
`COc1cccc2cc(-c3nnc(SCC(=O)NCc4ccccc4)n3C)oc12` gave a z-score of -0.275.
For `O=S(=O)(c1ccc(Cl)cc1)N1CCC(O)(c2cccnc2)CC1`, the z-score was -1.28.
`CCOCCCNC(=O)C1CCN(S(=O)(=O)CC)CC1` showed a z-score of 0.957.
With `COc1ccccc1CC(NC(C)=O)C(=O)NC1CCN(c2nnnn2-c2ccccc2)CC1` (stereo not drawn) the z-score was -0.549.
`O=C1NCC(COCC2CC=CCC2)O1` (stereo not drawn) was tested, and the z-score was -0.33.
In the case of `CCCOc1ccc(N2C(=O)CC(S/C(N)=N/N=C(\C)c3cccs3)C2=O)cc1` (stereo not drawn), the z-score is reported as -0.321.
Compound `Cc1ccc(S(=O)(=O)N(CC(=O)N/N=C/c2cccc(Cl)c2)c2cccc3cccnc23)cc1` has a z-score of -0.51.
In the case of `COc1ccc(CNc2nc(-c3cccnc3)nn2C(=O)c2ccco2)cc1`, the z-score is reported as active: 9.48.
`C=CCNC(=S)NC1CC(C)(C)NC(C)(C)C1` gave a z-score of 0.609.
With `COc1ccc(C2NC(=O)NC(O)(C(F)(F)F)C2C(=O)c2ccccc2)cc1OC` (stereo not drawn) the z-score was -0.119.
In the case of `CC(O)(CS(=O)(=O)Cc1cccc(C(F)(F)F)c1)C(=O)Nc1cccc(C(F)(F)F)c1` (stereo not drawn), the z-score is reported as -0.0329.
`Cc1cc(Cl)c(S(=O)(=O)NC(C)C)cc1OCC(N)=O` showed a z-score of -0.15.
With `COc1ccccc1N1CCN(CC(O)c2ccc3cc[nH]c3c2)CC1` (stereo not drawn) the z-score was -1.83.
For `O=C(Oc1ccc2[nH]cc(CCN3C(=O)c4ccccc4C3=O)c2c1)c1ccco1`, the z-score was 0.567.
`CC(C)(C)OC(=O)N1Cc2ccccc2C[C@H]1C(=O)O` showed a z-score of -0.202.
